Reference: the supplement of paper PMC4604168 (melanoma cell lines)
The other results are listed elsewhere or left out. Most values come without repeats; read them as rough.

What follows are compounds tested on IST-MEL1 (assay: cell count relative to DMSO control; melanoma cells; higher = more viable cells). Details: library dose: standard library concentration; 72 h.
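Also: cells treated in 1,536-well plates, then fixed and DAPI-stained, with nuclei counted from automated high-throughput microscope images.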

Row | Compound | cell count [%]
1 | Cn1c(Nc2ccc(C(F)(F)F)cc2)nc2cc(Oc3ccnc(-c4ncc(C(F)(F)F)[nH]4)c3)ccc21 + CN(C)S(=O)(=O)c1ccc2c(c1)/C(=C/c1cc3c([nH]1)CCCC3)C(=O)N2 [SU6656] (first compound 0.4 µM, partner dose 2 µM) | 65.5
2 | Clc1ccc(Nc2nnc(Cc3ccncc3)c3ccccc23)cc1 [vatalanib] + OCCn1cc(-c2cnc3nnn(Cc4ccc5ncccc5c4)c3n2)cn1 [PF04217903] (first compound 10 µM, partner dose 5 µM) | 73.9
3 | Nc1cccc2c1CN(C1CCC(=O)NC1=O)C2=O (configuration not stated) [lenalidomide] + COc1ccc2c(c1)CCC1C2CCC2(C)C(NCCCCCCN3C(=O)C=CC3=O)CCC12 [U73122] (first compound 5 µM, partner dose 2 µM) | 5.94
4 | Cn1c(Nc2ccc(C(F)(F)F)cc2)nc2cc(Oc3ccnc(-c4ncc(C(F)(F)F)[nH]4)c3)ccc21 + COc1cc(N2CCC(N3CCN(C)CC3)CC2)ccc1Nc1ncc(Cl)c(Nc2ccccc2S(=O)(=O)C(C)C)n1 [NVP-TAE684] (first compound 0.4 µM, partner dose 0.4 µM) | 98.7
5 | C#Cc1cccc(Nc2ncnc3cc(OCCOC)c(OCCOC)cc23)c1 [erlotinib] + COc1cc2ncnc(Nc3ccc(Oc4ccccc4)cc3)c2cc1OC [SrcI1] (first compound 4 µM, partner dose 10 µM) | 89
6 | C#Cc1cccc(Nc2ncnc3cc(OCCOC)c(OCCOC)cc23)c1 [erlotinib] + Cc1cc([N+](=O)[O-])ccc1NS(=O)(=O)c1cc(Cl)ccc1Cl [FH535] (first compound 4 µM, partner dose 5 µM) | 66.9
7 | OCc1c[nH]c2ccccc12 [Indole-3-carbinol] + C#Cc1cccc(Nc2ncnc3cc(OCCOC)c(OCCOC)cc23)c1 [erlotinib] (first compound 4 µM, partner dose 4 µM) | 91.1
8 | Clc1ccc(Nc2nnc(Cc3ccncc3)c3ccccc23)cc1 [vatalanib] + O=C(O)c1ccc(-c2c[nH]c3ncc(-c4ccccc4)cc23)cc1C1CCCC1 [GSK650394] (first compound 10 µM, partner dose 0.8 µM) | 52
9 | Cn1c(Nc2ccc(C(F)(F)F)cc2)nc2cc(Oc3ccnc(-c4ncc(C(F)(F)F)[nH]4)c3)ccc21 + CO[C@@H]1[C@H](N(C)C(=O)c2ccccc2)C[C@H]2O[C@]1(C)n1c3ccccc3c3c4c(c5c6ccccc6n2c5c31)C(=O)NC4 [Midostaurin] (first compound 0.4 µM, partner dose 0.4 µM) | 62.6
10 | Clc1ccc(Nc2nnc(Cc3ccncc3)c3ccccc23)cc1 [vatalanib] + COCC[n+]1c2c(n(Cc3cnccn3)c1C)C(=O)c1ccccc1C2=O [YM155] (first compound 10 µM, partner dose 0.002 µM) | 82.6
11 | Cn1c(Nc2ccc(C(F)(F)F)cc2)nc2cc(Oc3ccnc(-c4ncc(C(F)(F)F)[nH]4)c3)ccc21 + O=C(O)C(=O)Nc1sc2c(c1C(=O)O)CCNC2 [TCS401] (first compound 0.4 µM, partner dose 8.33333 µM) | 83.8
12 | O=C(CCCCCCC(=O)Nc1ccccc1)NO [vorinostat] + COc1cc(Nc2ncc(F)c(Nc3ccc4c(n3)NC(=O)C(C)(C)O4)n2)cc(OC)c1OC [Tamatinib] (first compound 0.4 µM, partner dose 2 µM) | 66.7
13 | O=C(CCCCCCC(=O)Nc1ccccc1)NO [vorinostat] + N#Cc1c(O)c2c(-c3ccc(-c4ccccc4O)cc3)csc2[nH]c1=O [A769662] (first compound 0.4 µM, partner dose 10 µM) | 78.7
14 | Nc1cccc2c1CN(C1CCC(=O)NC1=O)C2=O (configuration not stated) [lenalidomide] + Cn1cc(/C=C2\C(=O)Nc3cccnc32)c2ccccc21 [GW441756] (first compound 5 µM, partner dose 2 µM) | 110
15 | Clc1ccc(Nc2nnc(Cc3ccncc3)c3ccccc23)cc1 [vatalanib] + C=CCn1c(=O)c2cnc(Nc3ccc(N4CCN(C)CC4)cc3)nc2n1-c1cccc(C(C)(C)O)n1 [MK1775] (first compound 10 µM, partner dose 0.1 µM) | 63
16 | COCC[n+]1c2c(n(Cc3cnccn3)c1C)C(=O)c1ccccc1C2=O + O=c1cc(-c2cccc3c2Sc2ccccc2S3)oc(N2CCOCC2)c1 [KU55933] (first compound 0.002 µM, partner dose 5 µM) | 37.3
17 | Cn1c(Nc2ccc(C(F)(F)F)cc2)nc2cc(Oc3ccnc(-c4ncc(C(F)(F)F)[nH]4)c3)ccc21 + O=C(CCCCCCC(=O)Nc1ccccc1)NO [vorinostat] (first compound 0.4 µM, partner dose 0.4 µM) | 78
18 | COCC[n+]1c2c(n(Cc3cnccn3)c1C)C(=O)c1ccccc1C2=O + COc1cc2ncnc(Nc3ccc(Oc4ccccc4)cc3)c2cc1OC [SrcI1] (first compound 0.002 µM, partner dose 10 µM) | 39.5
19 | COCC[n+]1c2c(n(Cc3cnccn3)c1C)C(=O)c1ccccc1C2=O + Cc1ccc(NC(=O)c2cccc(N(C)C)c2)cc1NC(=O)c1ccc(O)cc1 [ZM336372] (first compound 0.002 µM, partner dose 10 µM) | 43.5
20 | COCC[n+]1c2c(n(Cc3cnccn3)c1C)C(=O)c1ccccc1C2=O + CN(NC(=O)CC(=O)NN(C)C(=S)c1ccccc1)C(=S)c1ccccc1 [STA4783] (first compound 0.002 µM, partner dose 0.03 µM) | 18.3
21 | C#Cc1cccc(Nc2ncnc3cc(OCCOC)c(OCCOC)cc23)c1 [erlotinib] + Nc1cccc2c1CN(C1CCC(=O)NC1=O)C2=O [lenalidomide] (first compound 4 µM, partner dose 5 µM) | 94.8
22 | Nc1cccc2c1CN(C1CCC(=O)NC1=O)C2=O (configuration not stated) [lenalidomide] + COC(=O)c1sccc1S(=O)(=O)Nc1ccc(Nc2ccccc2)cc1OC [GSK0660] (first compound 5 µM, partner dose 5 µM) | 98.9
23 | Nc1cccc2c1CN(C1CCC(=O)NC1=O)C2=O (configuration not stated) [lenalidomide] + NC(=O)Nc1cc(-c2cccc(F)c2)sc1C(=O)N[C@H]1CCCNC1 [AZD7762] (first compound 5 µM, partner dose 0.1 µM) | 32.4
24 | COCC[n+]1c2c(n(Cc3cnccn3)c1C)C(=O)c1ccccc1C2=O + COc1ccc2c(c1)CCC1C2CCC2(C)C(NCCCCCCN3C(=O)C=CC3=O)CCC12 [U73122] (first compound 0.002 µM, partner dose 2 µM) | 81.4
25 | C#Cc1cccc(Nc2ncnc3cc(OCCOC)c(OCCOC)cc23)c1 [erlotinib] + COCC[n+]1c2c(n(Cc3cnccn3)c1C)C(=O)c1ccccc1C2=O [YM155] (first compound 4 µM, partner dose 0.002 µM) | 34
26 | Clc1ccc(Nc2nnc(Cc3ccncc3)c3ccccc23)cc1 [vatalanib] + CCc1ccc(CCOc2ccc(CC3SC(=O)NC3=O)cc2)nc1 [pioglitazone] (first compound 10 µM, partner dose 10 µM) | 78.4
27 | C#Cc1cccc(Nc2ncnc3cc(OCCOC)c(OCCOC)cc23)c1 [erlotinib] + CO[C@@H]1[C@H](N(C)C(=O)c2ccccc2)C[C@H]2O[C@]1(C)n1c3ccccc3c3c4c(c5c6ccccc6n2c5c31)C(=O)NC4 [Midostaurin] (first compound 4 µM, partner dose 0.4 µM) | 79.9
